We go through 68 molecules from PubChem BioAssay AID1347073 (National Center for Advancing Translational Sciences (NCATS), 2019).

The whole screen tested about 45,000 compounds, of which about 200 (0.44%) were called active. Not shown: some 7% with an inconclusive outcome. The call rests on the fitted dose curve; in most records, active means well fitted activation curve with a large enough effect; inconclusive means small, poorly fitted or top-dose-only effect; inactive means no such curve, though single readings can be large or run the other way. Some of the results follow.

This assay can be described thus: qHTS of TDP-43 Inhibitors: NCGC Sytravon Library Screen. Further: 0% is about no effect; nearly all actives have a fitted effect of over 55% in size. As to conditions: yeast TDP-43 toxicity rescue, BacTiter-Glo growth, 24 h; series mostly up to 46.1 µM; growth rescue (activation): at the top concentration. In short, it runs like this: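 TDP-43-expressing yeast, pregrown in raffinose, seeded at OD600 0.02 in galactose medium with compound for 24 hr at 30 deg C. Growth read by BacTiter-Glo luminescence, so rescue of toxicity appears as activation.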
For orientation: In qHTS, concentration-response curves come from the screen itself.
Take `O=C(COC(=O)c1cc(Cl)ccc1Cl)NC1CCCC1`: the “growth rescue (activation)” value is inactive: -9.47%.

As to `CN1OCC(S(=O)(=O)c2ccccc2)C1c1ccccc1` (stereo not drawn), the “growth rescue (activation)” value is inactive: -10.4%.

Take `CC(NC(=O)COc1ccc(-c2nnco2)cc1)c1ccc(Cl)cc1Cl` (stereo not drawn): the “growth rescue (activation)” value is inactive: 21.7%.

On to `COc1ccccc1C(=O)C1CCCN(Cc2cn[nH]c2C2CCCCC2)C1` (stereo not drawn), for which the “growth rescue (activation)” value was inactive: -4.97%.

In the case of `Cn1c(NCc2ccccc2F)nc2cc(-c3ccsc3)sc2c1=O`, the “growth rescue (activation)” value was inactive: 8.05%.

For `COC(=O)c1c(C)[nH]c(C(=O)OCC(=O)N2c3ccccc3NC(=O)C2(C)C)c1C`, the “growth rescue (activation)” value is inactive: 15.5%.

For the molecule `COc1ccc(C2(C(=O)N3CCOCC3)CCCC2)cc1`, the “growth rescue (activation)” value was inactive: 7.93%.

As for `COc1ccc(NS(=O)(=O)c2csc(C(N)=O)c2)cc1`, the “growth rescue (activation)” value was inactive: 11.5%.

`COc1ccc(C(=O)CCC(=O)Nc2cccnc2)c(OC)c1`: the “growth rescue (activation)” value is inactive: -5.25%.

As to `O=C(NCC1CCCO1)c1ccccn1` (stereo not drawn), the “growth rescue (activation)” value was inactive: -1.53%.

In the case of `O=C(COc1ccc(Br)cc1Cl)NCCCN1CCOCC1`, the “growth rescue (activation)” value was inactive: 8.06%.

As to `COc1ccc(CC(=O)NNS(=O)(=O)c2ccccc2[N+](=O)[O-])cc1`, the “growth rescue (activation)” value is inactive: -4.07%.

On to `CSc1cccc(NS(=O)(=O)c2ccc(C(C)=O)cc2)c1`, for which the “growth rescue (activation)” value is inactive: 12.7%.

For `O=C(Nc1ccc(C(=O)O)cc1)/C(=C\c1ccco1)NC(=O)c1ccccc1Cl`, the “growth rescue (activation)” value is inactive: -0.212%.

On to `CC(NC(=O)c1ccccc1F)c1nnc(SCc2nc3ccccc3c(=O)[nH]2)n1C` (stereo not drawn), for which the “growth rescue (activation)” value was inactive: 7.53%.

Turning to `CCN(CCCNC(=O)CSc1cc(=O)n(C)c2cc(Cl)ccc12)Cc1ccccc1`, the “growth rescue (activation)” value was inactive: 3.02%.

For the molecule `COCCNC(=O)C1(C)CCCN(CCS(=O)(=O)c2ccc(C)cc2)C1` (stereo not drawn), the “growth rescue (activation)” value was inactive: 2.73%.

Take `CCn1cc(C(=O)NCCc2ccccc2)c(=O)c2cc(S(=O)(=O)N(C)C)ccc21`: the “growth rescue (activation)” value is inactive: 8.37%.

As to `COc1ccc(NC(=O)c2cc(-c3ccccc3)oc2C)cc1`, the “growth rescue (activation)” value is inactive: 11.2%.

For the molecule `COC(=O)n1c(=O)oc2ccc(S(=O)(=O)N3CCCCC3)cc21`, the “growth rescue (activation)” value was inactive: 7.61%.

`O=C(NCCCN1CCCCC1)c1ccc2c(=O)n(CCc3ccccc3)c(=O)[nH]c2c1`: the “growth rescue (activation)” value was inactive: 19.8%.

As for `CC(=O)N(c1ccc(C)cc1)c1nc(C)cc(C)c1C#N`, the “growth rescue (activation)” value is inactive: -11.5%.

Consider `Cc1sc(N)nc1-c1c(C)n(C)c2ccccc12`, for which the “growth rescue (activation)” value is inactive: 2.09%.

Regarding `COc1ccc(C(=O)OCC(=O)N2CCc3ccccc32)cc1S(=O)(=O)N1CCOCC1`, the “growth rescue (activation)” value was inactive: 3.64%.

Consider `CCc1nc2ccc(C(=O)NCc3ccc4c(c3)OCO4)cn2c1N(C)Cc1ccc(OC)cc1`, for which the “growth rescue (activation)” value is inactive: 2.93%.

For `Cc1sc(-n2cccc2)c(C(C)NC(=O)Nc2ccccc2Cl)c1C` (stereo not drawn), the “growth rescue (activation)” value was inactive: 20.3%.

With `COc1ccc([N+](=O)[O-])cc1NC(=O)COC(=O)c1ccccc1O`, the “growth rescue (activation)” value is inactive: 24.7%.

For `O=C(CCCN1C(=O)c2ccccc2C1=O)Nc1nnc(C2CC2)s1`, the “growth rescue (activation)” value was inactive: -2.45%.

`COc1ccc(NC(=O)C2CCC(C(C)(C)C)CC2)cc1S(=O)(=O)N1CCCCC1` (stereo not drawn): the “growth rescue (activation)” value is inactive: 13.8%.

Consider `COc1ccncc1-c1csc(C(O)c2ccccc2)n1` (stereo not drawn), for which the “growth rescue (activation)” value is inactive: -1.15%.

In the case of `O=C(O)C(Cc1c[nH]c2ccccc12)NS(=O)(=O)c1cccc2nsnc12` (stereo not drawn), the “growth rescue (activation)” value is inactive: 3.7%.

In the case of `CCOC(=O)c1c(NC2=NS(=O)(=O)c3ccccc32)sc2c1CCCCC2`, the “growth rescue (activation)” value is inactive: 23%.

`COc1cc(/C=C/C(=O)Nc2cc(S(=O)(=O)N3CCOCC3)ccc2N2CCCC2)cc(OC)c1OC`: the “growth rescue (activation)” value is inactive: 1.89%.

On to `Cc1cccc2sc(NC(=O)CSc3cn[nH]n3)nc12`, for which the “growth rescue (activation)” value is inactive: 5.27%.

With `Cc1cc(C(=O)NC(=S)Nc2ccccc2N2CCOCC2)ccc1[N+](=O)[O-]`, the “growth rescue (activation)” value is inactive: 25.4%.

Consider `OC(c1ccccc1)(C1CCCCC1)C(CN1CCOCC1)c1ccccc1` (stereo not drawn), for which the “growth rescue (activation)” value is inactive: -31.4%.

Consider `Cc1cc(C)nc(NS(=O)(=O)c2ccc(NC(=O)Nc3ccccc3)cc2)n1`, for which the “growth rescue (activation)” value is inactive: 10.6%.

For `O=C(OC(C(=O)NCc1ccccc1)c1ccccc1)c1ccco1` (stereo not drawn), the “growth rescue (activation)” value was inactive: 7.77%.

Take `CCC(=O)Nc1ccc2c(c1)C(=O)N(C)C2=O`: the “growth rescue (activation)” value is inactive: -5.04%.

As for `O=S(=O)(NNc1ncc(C(F)(F)F)cc1Cl)c1ccccc1`, the “growth rescue (activation)” value was inactive: 1.18%.

Take `CCOC(=O)C1(Cc2ccccc2C(F)(F)F)CCN(CCCn2cccn2)CC1`: the “growth rescue (activation)” value was inactive: 10.7%.

`CCOc1cc(N2CCOCC2)c(OCC)cc1NC(=O)COC(=O)[C@H](Cc1c[nH]c2ccccc12)NC(C)=O`: the “growth rescue (activation)” value was inactive: 12.6%.

For `S=C(/N=c1/sccn1Cc1ccccc1)NC1CC1`, the “growth rescue (activation)” value was inactive: 16.2%.

Take `O=C(CSc1nnc(-c2ccccc2O)o1)N1CCCCC1`: the “growth rescue (activation)” value is inactive: -1.23%.

With `Cc1ccc(NC(=O)CCC(=O)NNC(=O)NC23CC4CC(CC(C4)C2)C3)cc1C`, the “growth rescue (activation)” value was inactive: 12.4%.

Take `CCOc1cccc(CNCCO)c1OCc1ccc(Cl)cc1`: the “growth rescue (activation)” value was inactive: -4.42%.

Take `CC1=NN(c2nc(-c3ccc(C#N)cc3)cs2)C(=O)C1`: the “growth rescue (activation)” value is inactive: 20.9%.

With `CCc1nnc(NC(=O)c2ccc(COc3ccccc3C)o2)s1`, the “growth rescue (activation)” value is inactive: 23.5%.

Regarding `CCOC(=O)N1CCN(C(=O)CCN2C(=O)/C(=C\c3cccc(OC)c3)SC2=S)CC1`, the “growth rescue (activation)” value is inactive: 13.2%.

With `Cc1ccccc1NC(=O)CN1C(=O)NC(C)(c2ccc3c(c2)OCO3)C1=O` (stereo not drawn), the “growth rescue (activation)” value is inactive: 8.01%.

As for `COc1cc(C2Nc3c(F)cccc3C3C=CCC32)cc(Br)c1OC` (stereo not drawn), the “growth rescue (activation)” value was inactive: 8.23%.

For `Cn1c(=O)n(Cc2ccccc2Cl)c(=O)c2c1[nH]c(=S)n2C`, the “growth rescue (activation)” value is inactive: 15.3%.

As for `COc1cccc(-c2nc3cc(C)ccc3o2)c1`, the “growth rescue (activation)” value is inactive: -14%.

Consider `CN(C)S(=O)(=O)c1ccc(Cl)c(NC(=O)COC(=O)[C@@H]2CCCN2C(=O)c2cccs2)c1`, for which the “growth rescue (activation)” value is inactive: -3.23%.

In the case of `CCN(CC)c1ccc(/C=N/OC(C)C(=O)Nc2ccc(C)cc2)cc1` (stereo not drawn), the “growth rescue (activation)” value was inactive: -21%.

On to `O=c1oc2c(-c3ccc([N+](=O)[O-])cc3)cc(O)cc2s1`, for which the “growth rescue (activation)” value was inactive: -6.96%.

Regarding `O=C(CCc1ccccc1)Nc1cccnc1Cl`, the “growth rescue (activation)” value was inactive: 11.7%.

Turning to `CCCc1cc(=O)n2[nH]c(C)c(-c3ccccc3)c2n1`, the “growth rescue (activation)” value was inactive: 2.03%.

Consider `CCOC(=O)CSC1=C(C#N)C(c2ccc(C)cc2)C2=C(CCCC2=O)N1` (stereo not drawn), for which the “growth rescue (activation)” value was inactive: -0.752%.

Consider `N#Cc1ccc(CSCC(=O)NN=C2CCCC2)cc1`, for which the “growth rescue (activation)” value was inactive: 12.3%.

For `Cc1ccc(NC2=NC(c3ccc(F)cc3)n3c(nc(C)cc3=O)N2)c(C)c1` (stereo not drawn), the “growth rescue (activation)” value was inactive: -4.63%.

Consider `COc1ccccc1N(CCOc1ccccc1)S(=O)(=O)c1ccccc1`, for which the “growth rescue (activation)” value was inactive: 7.74%.

As for `CC(=O)Nc1ccc(S(=O)(=O)NC2(C(F)(F)F)NC(=O)N(c3ccccc3F)C2=O)cc1` (stereo not drawn), the “growth rescue (activation)” value is inactive: 16.5%.

As for `COC(=O)c1ccc(OCC(O)CNC2CCCC2)cc1` (stereo not drawn), the “growth rescue (activation)” value is inactive: -3.3%.

As to `CCCN(CC(=O)Nc1ccc(Cl)cc1Cl)C(=O)/C=C/c1cccc([N+](=O)[O-])c1`, the “growth rescue (activation)” value is inactive: -2.64%.

As to `O=C(CSc1nnc(-c2cccc(F)c2)o1)N1CCOCC1`, the “growth rescue (activation)” value is inactive: -0.845%.

Consider `COc1ccc(N2C(=O)NC(NS(=O)(=O)c3ccccc3)(C(F)(F)F)C2=O)cc1` (stereo not drawn), for which the “growth rescue (activation)” value was inactive: 2.56%.

For `O=C(COC(=O)c1ccc([N+](=O)[O-])o1)Nc1cccc2ccccc12`, the “growth rescue (activation)” value is inactive: -47.4%.
